± gives the standard deviation of the averaged measurements. The list shows a part of the results.
tested on: PfAP2-EXP AP2 domain (GST-tagged); test: gcPBM binding intensity (ln(normalized median fluorescence intensity)); higher = stronger DNA binding
Procedure, shortened: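 Binding intensity is the highest Masliner-normalised natural-log median intensity over replicate spots in either probe orientation. To obtain it, GST-tagged P. falciparum DNA-binding domains made in E. coli were incubated for 1 h on an Agilent 4 × 180k array of primer-extended double-stranded 36-bp intergenic genomic probes plus negative controls. Detection used Alexa488 anti-GST antibody with scanning at 488 nm.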

Sequence	gcPBM binding intensity (ln)
AAAATAAATATAAAATGTACTTATATATATATATAT [XGTACX_site7803]	9.97 ± 0.47
TTGCACTCGTAAAAAGCACACATATAAAAACATTTA [CACACA_site7997]	8.57 ± 0.4
TTAAAAATGTTATAATGTACATATAATATTTTATGA [XGTACX_site5954]	8.29 ± 0.38
TATATATATATATATATATATATTTTTATTATATAT [XGTACX_negctrl_site89]	10.2 ± 0.52
ATTATAAATATAAATATAAATATATATTGTTCCGCA [TGCATGCA_negctrl_site470]	8.18 ± 0.39
AAAAAAAACAGACACACACACAAATATTTATATATC [CACACA_site6342]	8.79 ± 0.48
TTTATCCTTCTTTTGAGTACTCAAAGAGACCTATAA [XGTACX_site8050]	8.89 ± 0.45
ATTATAAATAAAATATGTACATATGTATAAATACAT [XGTACX_site4002]	8.43 ± 0.38
AAAACACATACTATATGTACATATAATAATTTATAT [XGTACX_site4525]	8.51 ± 0.29
TTCTGTATATAGTGTGCACACAATTAAAAAAAAAAA [CACACA_site8400]	8.79 ± 0.4
AAGAAAAAAAAAAAAAAAAAAAAAAAAAAAAAAAAA [TGCATGCA_negctrl_site263]	7.86 ± 0.27
TAGATACAGAAACACACACACACATACATATATACA [CACACA_site3437]	8.79 ± 0.57
AATAAATTAAAACAGGTGCACTATATTACACACGCT	8.98 ± 0.085
AGAATTATTGTTAATGCATGTGGAAGTTAAAATATT [TGCATGCA_site188]	9.04 ± 0.47
TTATGGAGAGTTATATGTACGAAAAATATGTATAAG [XGTACX_site515]	8.86 ± 0.45
TATATAGTAATTTATTCACACAATTGGCACACCTCA [CACACA_site4679]	8.71 ± 0.35
TATTTAAATTGTAAGTGTACATATATAAATGTAAAA [XGTACX_site1609]	8.52 ± 0.23
TATAATATATATTTGTGTCCACAACATTTTTAATAT [XGTACX_site2089]	8.56 ± 0.28
TAGATACATACACGCACACACATATATAAATAAATA [CACACA_site6157]	8.69 ± 0.49
AAAAAAAACAGACACACACACATACACATACATACA [CACACA_site2857]	8.72 ± 0.33
TAATTATGTACTATTATACACACGTTTAATTGTAAA [CACACA_site206]	8.52 ± 0.28
TTACGTATGTATTATGTTGTATATGAAATTAAAAAA [GTGCAC_negctrl_site292]	8.21 ± 0.39

Sequence	gcPBM binding intensity (ln)
AATAATATATGGTGTACACAAAAGTATAAATAATTT [CACACA_site5338]	9.05 ± 0.29
TATAAAAAAATAATAAATAAATAAAAAGATTTCTTT [TGCATGCA_negctrl_site122]	7.83 ± 0.47
TTGTGAATAACTAAGAAGAAAAAGATAAATATGTAT [TGCATGCA_negctrl_site388]	8.82 ± 0.45
TATTCATGCATATACACACACATATATTTATATTTT [CACACA_site7786]	8.77 ± 0.35
AATAATATTGAAATGTGTACGTATTTATATTTTATG [XGTACX_site8252]	8.6 ± 0.31
TTTTTCTTTTTTACAGTGCATAAATATATGTATTGT [GTGCAC_site9399]	8.61 ± 0.32
TTTTGTTATATTCAATATTTATATATTATAAATATA [CACACA_negctrl_site1705]	8.43 ± 0.38
AGCCATTATAATTCTTGTACATAATATAGCTATTTT [XGTACX_site1723]	8.88 ± 0.4
ACATATATATAATATATATTTTTCGTGTGGTGTCAC [CACACA_negctrl_site543]	8.43 ± 0.47
GAGCACCAAAATATATGTACATATGATAAATGTGAA [XGTACX_site1130]	8.9 ± 0.4
TTTTTTATTTTATTTTTTTCTGCTTATCCACATTAG [XGTACX_negctrl_site108]	8.73 ± 0.36
TCACTTTTATAATATAATATTCTATATCTTATTTTT [GTGCAC_negctrl_site717]	8.38 ± 0.39
AATATATATATAGGATGTACACATAATTCAAATATA [XGTACX_site2755]	8.76 ± 0.22
ATCATTGAAGTTAAAAATATAAAGTATTCAGAAGGG [XGTACX_negctrl_site560]	8.74 ± 0.52
ACCATACATACATACACACACACACCCATATATATA [CACACA_site2917]	8.94 ± 0.45
TTTCATGTTTTAAAGTGTACATAAATATATTATATG [XGTACX_site3367]	8.57 ± 0.38
TTGTTAGAGTATATTGAAAGGATAACCTTTTTTTAT [XGTACX_negctrl_site122]	8.03 ± 0.34
TTGTGTTTGCGTAAATGTACGGAAAGACTTGAAGAC [XGTACX_site7235]	8.96 ± 0.35
TTTTTAATAAAATGATTGATAATTATTAAATTAAAA [CACACA_negctrl_site488]	7.86 ± 0.4
TAACATATCTTTAATACACACTTAAAAAAGTACTTA [CACACA_site4532]	8.27 ± 0.39
ACACTTAAATATTGTTGTACAAAATGATAAAATGTA [XGTACX_site4588]	8.6 ± 0.33
GGAAACACAATATATACACACATATATATATATATA [CACACA_site235]	9.95 ± 0.49

Sequence	gcPBM binding intensity (ln)
TTATATAACCCTCATGCATGCTAAGAAAAAAAAAAC [TGCATGCA_site936]	9.57 ± 0.35
ATTTATATTATAATATGTACACAAAAAAAATTAGGA [XGTACX_site565]	8.78 ± 0.37
TTGATGTATACAATGTAGATTATTTAATATTTCAAT [GTGCAC_negctrl_site203]	8.13 ± 0.41
ATTTTTAAGCATATCAAAAAAAAAAAAAAAATTAAT [CACACA_negctrl_site980]	8.01 ± 0.23
TTACTAAAAATTATTAATAAATAATAATTATAAATT [GTGCAC_negctrl_site310]	7.89 ± 0.45
TAAAAAGGAAAACACACACACACATATATATATATA [CACACA_site3588]	10.2 ± 0.16
TTTCCAATTAGTTTTGCATGTTGAAAAAATGTTGGA [TGCATGCA_site1035]	8.32 ± 0.33
TTATTATTAAGACACACACACAAAAAAAAAAAAAAA [CACACA_site6805]	8.26 ± 0.49
TATTTTAACTTCTCATGTACATATATTATGTCTATA [XGTACX_site249]	9.01 ± 0.39
CTTTGTAGTATATTAACACACAACTATTTATAATAT [CACACA_site3934]	8.3 ± 0.3
TATCATAAACTTCCTTACTATACTTTTCTTATTCAT [CACACA_negctrl_site1341]	8.78 ± 0.35
TTTCGATTAAAAATTGTACAATATAAGGAGCACACA [GTGCAC_negctrl_site476]	9.12 ± 0.42
ATGAAAATTATAAAGTGTACATATAGAAACATTTAC [XGTACX_site8047]	8.365 ± 0.049
ACTGTAACAATCATGGGTACAAATAAAATAATATCT [XGTACX_site99]	8.74 ± 0.47
TAAAAAAAAAAATGAACATGCAACAATTGTGATGAA [TGCATGCA_site332]	8.93 ± 0.41
AACCACAGACATATAACACACATATACAATATATAT [CACACA_site5142]	8.66 ± 0.28
CTTTTTTTGACCTTAGTGCAAATAACTATATATTAT	8.8 ± 0.16
TTTTGTCTTATATGTTGTACAACGTAAACAAAAAAA [XGTACX_site4412]	8.65 ± 0.28
AAAAGAATATATAATTGTACTTAAAATATAATTAAG [XGTACX_site4484]	8.29 ± 0.26
TTTAATCATATGTTATATAATAAGCCCCCCCCCCAA [CACACA_negctrl_site486]	11 ± 0.12
AAAAAAATTAAACATGAAGAATAAGGAACAAAAAAA [CACACA_negctrl_site1607]	9.02 ± 0.46
ATTTAAGTAGTACATACACACACATATACAAAAAGA [CACACA_site9317]	9 ± 0.44

Sequence	gcPBM binding intensity (ln)
ATGGGACATATATATACACACATATATATATATATA [CACACA_site1202]	10 ± 0.21
ACATCTCTTATATATTCACACACATATATATAATTA [CACACA_site8424]	8.82 ± 0.35
GCACATCTATATGAAACACACATGGAAACATCTCTT [CACACA_site7793]	8.47 ± 0.35
TTAAAAAATTTTTAAGCACACACATAGATAATATAT [CACACA_site8440]	8.85 ± 0.45
TTTTTTTTTTAATTCGCACACTGTCTTCATGCAATT [CACACA_site4882]	8.86 ± 0.45
GAAACTTCAAGAAATGCACACAATAAAATAAATAAA [CACACA_site1549]	8.71 ± 0.35
AGCATTAAAAATGGAATGGAATTAAGCTATATATTA [CACACA_negctrl_site1571]	8.37 ± 0.46
ATAGAATATTATATTACACACAGAATAATAAAAAAT [CACACA_site86]	8.55 ± 0.49
AGTATATATTATATATATATATATATATTATATATG [TGCATGCA_negctrl_site99]	8.25 ± 0.26
CATTTCGAAAAAAAATGTACTTATTATATTTATATA [XGTACX_site6752]	8.03 ± 0.4
TTATCTTACATAAATTATAACAATAATATGTGTATA [XGTACX_negctrl_site379]	7.97 ± 0.33
TGTATATATTATAAAAGTACATAATATTCTTAGATA [XGTACX_site5623]	8.19 ± 0.34
ATAATATGAAATATAACACACATATATAAAAACATT [CACACA_site866]	8.64 ± 0.57
TATTTTTTTTTTGGGTGTACCTTTTATATATATTGT [XGTACX_site5036]	8.64 ± 0.57
TATACACATTTTTATACACACTTGTTTTATAAAACG [CACACA_site6480]	8.59 ± 0.42
CATTTATATATATACACACACACAAAAAAAAAAAAA [CACACA_site2645]	8.44 ± 0.49
ATTTAACTAAAGAAGGCACACGTGTTTAAAAAAAAA [CACACA_site5241]	8.85 ± 0.52
AATATTATATTTTATTGTACTAATAAAAATATATGC [XGTACX_site5435]	8.46 ± 0.46
GACGTTATGATACACATACACACAGGGATAAAAAAT [CACACA_site2882]	8.91 ± 0.4
TTTTTTTTTTTTTTTTGTACTTAAAAATTTATATAA [XGTACX_site7718]	8.16 ± 0.5
TATATATATATATATGCATGTACATATATTTGTTAT [TGCATGCA_site379]	10.3 ± 0.17

— the supplement of paper PMC11417369
